Source: PubChem BioAssay AID686970 (National Center for Advancing Translational Sciences (NCATS), 2013)
Among all 360,000 compounds or so, about 6,000 (1.7%) were called active. The inconclusive results got no clear call from the source; some entries with a clear call stand among them for comparison. Calls follow the shape of the dose curve; as a rule, active = well fitted cell-killing curve with a large enough effect; inconclusive = small, poorly fitted or top-dose-only effect, or effect the other way; inactive = flat fitted curve, though single readings scatter. Potencies of inconclusive entries are left out as doubtful fits.

Assay: qHTS for induction of synthetic lethality in tumor cells producing 2HG: qHTS for the HT-1080-NT fibrosarcoma cell line;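 also: NT is the 2HG producing partner of a matched IDH1 knockdown line; nearly all actives have a fitted effect of over 55% in size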;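 as to activity, negative = less viability: 0% = DMSO-treated cells and -100% = media-only wells without cells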
Conditions: HT-1080-NT fibrosarcoma viability, CellTiter-Glo ATP luminescence, 48 h; activity, negative = less viability: at 46.1 µM (top of the series) unless noted
Outline: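 Luminescent CellTiter-Glo readout after 48 hours of compound exposure at 37 degrees C defined viability of HT-1080-NT cells. Activity was normalized to DMSO wells and cell-free media wells; concentration-response curves were fitted and assigned curve classes.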
Potency is read from the fitted curve at half-maximal effect; tags tell the direction and shape of the fitted curve.

SMILES | Potency | activity, negative = less viability
Cc1ccc(S(=O)(=O)N2CCN(C(=O)COc3ccc(Br)cc3)CC2)cc1 | inactive | –
CCN(Cc1ccccc1)c1ccc(/C=N/NC(=O)c2cccc(S(=O)(=O)N3CCOCC3)c2)cc1 | inconclusive [cytotoxic, single point] | –
Cc1cc(C(=O)CSc2nnc(NCc3ccccc3)s2)c(C)n1C | active: 14.6 µM | –
Cn1cnc([N+](=O)[O-])c1Sc1nc(N)nc2c1ncn2C1OC(CO)C(O)C1O (stereo not given) | active: 1.3 µM | –
CN=c1sc2c(n1C)C(=O)c1ccccc1C2=O | active: 18.4 µM | –
CCc1cccc(NC(=O)C2CCCN(S(=O)(=O)c3cccs3)C2)c1 (stereo not given) | inconclusive [cytotoxic, single point] | –
CCOC(=O)c1ccc(NS(=O)C23CC4CC(CC(C4)C2)C3)cc1 (stereo not given) | inconclusive [cytotoxic, single point] | –
CCOC(=O)C1=C(CN2CCCCC2)NC(=O)NC1c1cc(C)ccc1C (stereo not given) | inactive | –
CC(=O)Nc1sc(C)c(C)c1C(=O)OCC(=O)Nc1ccccc1C(F)(F)F | inactive | –
C[C@@H]1ON(C)[C@H]2C[C@H]3c4[nH]c5ccc(-c6ccc7c(c6)OCO7)cc5c4CCN3C(=O)[C@@H]12 | inconclusive [cytotoxic, single point] | –
O=C(C=C1CCN(c2ncc(C(F)(F)F)cc2Cl)CC1)NNC(=O)Nc1ccc(Cl)cc1 | inactive | –
O=C(O)c1cn(Cc2ccccn2)c(=O)c2ccccc12 | inconclusive [rising, partial curve, poor fit] | –
Cn1c(=O)c2c(nc(CN3CCN(Cc4ccccc4)CC3)n2Cc2ccc(Cl)cc2)n(C)c1=O | inconclusive [cytotoxic, single point] | –
Cc1onc(-c2ccccc2)c1C(=O)OCCOc1cccc(Cl)c1 | inconclusive [cytotoxic, partial curve] | –
Brc1ccc(CN2CCN(Cc3c[nH]c4ccccc34)CC2)cc1 | active: 23.1 µM | –
O=[N+]([O-])c1ccc(/C=N/NC(=S)Nc2ccc(Cl)cc2Cl)s1 | inconclusive [cytotoxic, partial curve] | –
O=C(Nc1nccs1)c1cccnc1 | inconclusive [rising, single point] | –
Nc1ccc(N2CCCCC2)c2nonc12 | inconclusive [cytotoxic, single point] | –
Cc1cc(O)c(C(=O)/C=C/c2ccc(C(C)C)cc2)c(=O)o1 | inactive | –
O=C(NO)c1ccc(C(=O)N(C2CCCCC2)C2CCCCC2)cc1 | – | inconclusive: -31.1% [cytotoxic]
